Hit rate of the full screen: of about 310,000 compounds, about 14,000 (4.5%) showed an effect of 50% or more. The effect is printed as a negative number. This is one part of the list.
Each compound was assayed against human ether-à-go-go-related gene (hERG) potassium channel (human, UniProt Q12809) (assay: primary screen, population patch clamp on CHO cells stably expressing hERG).
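Further: peak tail current of the secondary pulse compared with the same well before compound.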

Sequence of human ether-à-go-go-related gene (hERG) potassium channel (Q12809 whole entry, looked up): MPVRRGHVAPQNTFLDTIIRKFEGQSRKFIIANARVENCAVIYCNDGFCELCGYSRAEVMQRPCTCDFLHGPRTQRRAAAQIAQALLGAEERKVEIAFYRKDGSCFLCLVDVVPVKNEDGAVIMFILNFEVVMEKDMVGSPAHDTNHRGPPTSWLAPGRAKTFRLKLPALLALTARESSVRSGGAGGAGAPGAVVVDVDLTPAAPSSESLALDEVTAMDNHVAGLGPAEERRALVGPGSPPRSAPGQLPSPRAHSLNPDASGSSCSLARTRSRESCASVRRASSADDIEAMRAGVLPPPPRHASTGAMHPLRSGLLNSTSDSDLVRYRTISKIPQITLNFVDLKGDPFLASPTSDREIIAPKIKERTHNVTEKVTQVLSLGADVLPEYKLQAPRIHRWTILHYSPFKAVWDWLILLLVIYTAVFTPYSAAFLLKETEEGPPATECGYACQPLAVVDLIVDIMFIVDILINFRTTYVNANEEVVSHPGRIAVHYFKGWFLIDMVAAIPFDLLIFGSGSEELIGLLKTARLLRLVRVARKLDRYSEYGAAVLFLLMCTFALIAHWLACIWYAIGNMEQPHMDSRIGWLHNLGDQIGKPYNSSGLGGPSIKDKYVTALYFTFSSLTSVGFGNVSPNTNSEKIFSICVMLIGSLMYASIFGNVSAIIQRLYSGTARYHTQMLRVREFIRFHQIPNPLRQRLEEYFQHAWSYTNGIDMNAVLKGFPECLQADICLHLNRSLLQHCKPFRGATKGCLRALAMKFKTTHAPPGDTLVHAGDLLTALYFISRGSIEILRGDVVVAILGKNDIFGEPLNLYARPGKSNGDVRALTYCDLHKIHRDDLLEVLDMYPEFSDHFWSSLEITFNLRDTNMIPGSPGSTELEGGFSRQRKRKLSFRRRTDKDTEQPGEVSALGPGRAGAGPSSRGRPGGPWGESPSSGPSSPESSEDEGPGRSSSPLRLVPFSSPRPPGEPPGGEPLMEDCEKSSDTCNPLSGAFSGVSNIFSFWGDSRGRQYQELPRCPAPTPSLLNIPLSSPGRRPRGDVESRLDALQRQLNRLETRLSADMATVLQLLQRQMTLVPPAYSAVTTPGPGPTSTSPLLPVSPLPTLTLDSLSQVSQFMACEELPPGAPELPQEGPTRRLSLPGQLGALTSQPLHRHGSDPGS

With CC1Cc2ccccc2N1C(=O)CCn1cccn1 (stereo not drawn) as the compound, how does the “hERG current change (%, negative = inhibition) at 10uM” value read?
The value was -1.73%.

How did the “hERG current change (%, negative = inhibition) at 10uM” value turn out when O=C(Nc1ccc2c(c1)C(=O)N(c1ccccc1)C2=O)c1cccs1 was run?
Its value is 4.93%.

How did the “hERG current change (%, negative = inhibition) at 10uM” value turn out when C=CCn1c(=O)c(C=Nc2cccc([N+](=O)[O-])c2)c(O)n(CCCC)c1=O was run?
Its value is -55%.

How did the “hERG current change (%, negative = inhibition) at 10uM” value turn out when COc1ccc(CC(=O)N2CCN(c3cccc(Cl)c3)CC2)cc1OC was run?
Its value is -7.38%.

Which “hERG current change (%, negative = inhibition) at 10uM” value does the source give for COc1ccc(NC(=O)C2C(=O)N(C)C3(C)CC2c2ccccc2O3)cc1 (stereo not drawn) here?
The value was -13.5%.

For CCOC(=O)CNC(=O)CSc1nnc(Cn2c(=O)sc3ccccc32)n1C, which “hERG current change (%, negative = inhibition) at 10uM” value is on record?
The value was 9.42%.

Which “hERG current change (%, negative = inhibition) at 10uM” value does the source give for Cc1ccc(O)c(C2=NOC(O)(C(F)(F)C(F)F)C2)c1 (stereo not drawn) here?
The value was -8.38%.

Which “hERG current change (%, negative = inhibition) at 10uM” value does the source give for Cc1n[nH]c(=O)c2c(NC(=O)CSc3ncccn3)oc(C)c12 here?
The value was 7.18%.

For O=C(CN1CCN(c2ccccn2)CC1)Nc1cccc(Cl)c1Cl, which “hERG current change (%, negative = inhibition) at 10uM” value is on record?
The value was -11.1%.

COC(=O)c1ccc(OC)c(CSc2nnc(COc3cccc(C)c3)o2)c1 was tested. Which “hERG current change (%, negative = inhibition) at 10uM” value did it give?
The value was -11%.

How did the “hERG current change (%, negative = inhibition) at 10uM” value turn out when C/C(=C\c1ccc(Cl)cc1)C(=O)c1c(C)cc(C)[nH]c1=O was run?
The value was 9.59%.

For Cn1c(SCC(=O)Nc2ccccc2C(F)(F)F)nc2c(c1=O)SCC2, which “hERG current change (%, negative = inhibition) at 10uM” value is on record?
Its value is -57%.

How did the “hERG current change (%, negative = inhibition) at 10uM” value turn out when CSc1ccc(S(=O)(=O)NCC(=O)OCC(=O)N2CCCCC2C)cc1[N+](=O)[O-] (stereo not drawn) was run?
Its value is 4.74%.

How did the “hERG current change (%, negative = inhibition) at 10uM” value turn out when Cc1ccc(S(=O)(=O)NCCC(=O)Nc2ccncc2)cc1C was run?
The value was -20.1%.

How did the “hERG current change (%, negative = inhibition) at 10uM” value turn out when CCN(CC)S(=O)(=O)c1cccc(NC(=O)COc2ccc(C#N)cc2OC)c1 was run?
Its value is -72.4%.

Which “hERG current change (%, negative = inhibition) at 10uM” value does the source give for COCc1c(C(=O)OCC(=O)c2c(N)n(CC(C)C)c(=O)n(C)c2=O)oc2ccccc12 here?
The value was -11.1%.

How did the “hERG current change (%, negative = inhibition) at 10uM” value turn out when NC(=O)c1ccccc1N/C=C1\CCCCC1=O was run?
The value was 3.06%.

With CCOc1ccc(C2C(C#N)=C(N)N(c3sc4c(c3C#N)CCCC4)C3=C2C(=O)CCC3)cc1 (stereo not drawn) as the compound, how does the “hERG current change (%, negative = inhibition) at 10uM” value read?
Its value is -4.76%.

For Cc1cc(N2C(=O)[C@@H]3[C@H](C2=O)[C@@H]2C[C@H]3C(Br)C2Br)no1 (stereo partly drawn), which “hERG current change (%, negative = inhibition) at 10uM” value is on record?
The value was 10.4%.

How did the “hERG current change (%, negative = inhibition) at 10uM” value turn out when COc1ccc(C(C(=O)NC(C)(C)C)N(C(=O)CNC(=O)c2cccs2)c2ccc(NC(C)=O)cc2)cc1OC (stereo not drawn) was run?
Its value is 10.4%.

Which “hERG current change (%, negative = inhibition) at 10uM” value does the source give for COc1cccc(C(=O)OC2CCCN(C)C2)c1.Cl (stereo not drawn) here?
The value was -10.9%.

How did the “hERG current change (%, negative = inhibition) at 10uM” value turn out when Cc1ccc2nc(SCC(=O)c3c[nH]c4ccccc34)[nH]c2c1 was run?
Its value is 32.5%.

CCOc1ccc(NC(=O)C23CC4CC(C2)CC(c2ccccc2)(C4)C3)cc1 was tested. Which “hERG current change (%, negative = inhibition) at 10uM” value did it give?
The value was 3.53%.

How did the “hERG current change (%, negative = inhibition) at 10uM” value turn out when CC(=O)Nc1ccc(S(=O)(=O)N(C)CC(=O)OCC(=O)c2ccc3c(c2)NC(=O)CO3)cc1 was run?
Its value is 8.14%.

With Cc1ccccc1-c1ccc(C=Nc2c(C)n(C)n(-c3ccccc3)c2=O)o1 as the compound, how does the “hERG current change (%, negative = inhibition) at 10uM” value read?
Its value is -24.3%.

How did the “hERG current change (%, negative = inhibition) at 10uM” value turn out when Cc1nc(SCC(=O)N2CCC(C(N)=O)CC2)n[nH]1 was run?
The value was 20.4%.

COc1cccc(-c2nnc(SCC(=O)Nc3cc(C)ccc3OC)n2N)c1 was tested. Which “hERG current change (%, negative = inhibition) at 10uM” value did it give?
Its value is -24.5%.

Cc1nc(NC(=O)c2ccccc2O)sc1C was tested. Which “hERG current change (%, negative = inhibition) at 10uM” value did it give?
The value was 15.7%.

Which “hERG current change (%, negative = inhibition) at 10uM” value does the source give for COC(=O)c1nnn(-c2nonc2N)c1CN1CCCC1 here?
Its value is 12.7%.

With COc1ccc(NC(=O)C2CCN(C(=O)c3cccs3)CC2)cc1 as the compound, how does the “hERG current change (%, negative = inhibition) at 10uM” value read?
Its value is -12.4%.

Which “hERG current change (%, negative = inhibition) at 10uM” value does the source give for Cc1c(-c2c(C#N)c(N)nc3c2CCCCCC3)cnn1C here?
The value was -8.88%.

How did the “hERG current change (%, negative = inhibition) at 10uM” value turn out when COC(=O)/C=C1\N/C(=N\c2nc(C)cc(C)n2)N(c2ccc(C)c(C)c2)C1=O was run?
The value was -9.07%.

CCc1ccc(NC(=O)c2cnc3n(c2=O)CCS3)cc1 was tested. Which “hERG current change (%, negative = inhibition) at 10uM” value did it give?
The value was -25.9%.

For COc1ccc(C(=O)OCC(=O)Nc2nc3c(F)c(F)c(F)cc3s2)cc1OC, which “hERG current change (%, negative = inhibition) at 10uM” value is on record?
The value was 13.3%.

How did the “hERG current change (%, negative = inhibition) at 10uM” value turn out when C/C(=N\Nc1ccc(Cl)c(C(=O)O)c1)c1ccc2c(c1)OCO2 was run?
The value was 24.3%.

With COc1ccccc1N1CCN(C2CCCN(C(=O)CCc3ccccn3)C2)CC1 (stereo not drawn) as the compound, how does the “hERG current change (%, negative = inhibition) at 10uM” value read?
Its value is -34.1%.

With O=C1CN(C(=O)c2ccc(Br)o2)C(c2ccccc2)c2cc(Cl)ccc2N1 (stereo not drawn) as the compound, how does the “hERG current change (%, negative = inhibition) at 10uM” value read?
The value was -28%.

How did the “hERG current change (%, negative = inhibition) at 10uM” value turn out when O=C(CCC(=O)Nc1ccccc1)NNC(=O)CCc1ccccc1 was run?
Its value is 14.5%.

Which “hERG current change (%, negative = inhibition) at 10uM” value does the source give for Cc1ccc(C(=O)Nc2ncc(C)s2)s1 here?
The value was 16.8%.

For COc1ccc2c(c1)/C(=N/N1C(=O)c3ccccc3C1=O)C(=O)N2, which “hERG current change (%, negative = inhibition) at 10uM” value is on record?
Its value is 10.1%.

How did the “hERG current change (%, negative = inhibition) at 10uM” value turn out when O=C(NCc1ccco1)c1nn2c(C(F)(F)F)cc(-c3cccs3)nc2c1Cl was run?
The value was 3.45%.

How did the “hERG current change (%, negative = inhibition) at 10uM” value turn out when O=C(Nc1nc2n(n1)C(c1ccc(Cl)cc1)CC(c1ccc(Cl)cc1)N2)c1ccco1 (stereo not drawn) was run?
Its value is -38.3%.

How did the “hERG current change (%, negative = inhibition) at 10uM” value turn out when COc1cccc(-c2nnc(SCC(=O)NC3CCS(=O)(=O)C3)n2C)c1 (stereo not drawn) was run?
The value was 4.26%.

How did the “hERG current change (%, negative = inhibition) at 10uM” value turn out when CCc1ccc(NC(=O)C2CCCCC2C(=O)O)cc1 (stereo not drawn) was run?
The value was 11.8%.

Which “hERG current change (%, negative = inhibition) at 10uM” value does the source give for COc1ccc(CC(=O)NNC(=O)CSc2nnc(Cc3ccc(OC)cc3)n2-c2ccccc2)cc1 here?
The value was -7.6%.

From article PMC4336329 (PLoS ONE, 2015)
